Results from patent publication US9957428B2 (priority 2013, dated 2018).

Tests used:
[1] = Procedure: Vapor Pressure was measured using the stirred-flask ebuilliometer method described in ASTM E-1719-97 “Vapor Pressure Measurement by Ebuilliometry”. This method is also referred to as “Dynamic Reflux”. The boiling point was measured using ASTM D1120-94 “Standard Test Method for Boiling Point of Engine Coolants”.
The method uses a 50-mL glass round-bottom flask. Vacuum was measured and controlled using a JKEM vacuum controller. The pressure transducer was calibrated on the day of measurement by comparison with full vacuum and with an electronic barometer located in the same laboratory. The procedure was to begin slowly heating the material, then applying vacuum until boiling occurred and a steady drop wise reflux rate was established. Distillate temperature and pressure reading were recorded, then the vacuum controller was set for a higher absolute pressure and the material was heated further until a new reflux point was established. The pressure level was raised in increments until the vapor pressure curve was obtained up to the atmospheric boiling point.

[2] = w/w; for Solubility of Z-Dol 2500 in deposition solvent: weight of lubricant to combined weight of lubricant and solvent; for Solubility of Moresco D40H in deposition solvent / Solubility of Z-Tetraol S Grade in deposition solvent: range = highest soluble value to lowest insoluble value
Procedure: Compounds from Preparatory Examples 1, 2 and 5 were evaluated for utility as deposition solvents based upon solubility for three industrial lubricants (Z-Dol 2500 and Fomblin Z-Tetraol S Grade available from Solvay SA, Brussels, Belgium and Moresco D40H available from Moresco, Kobe-City, Hyogo, Japan). A disposable glass vial was placed on a four-place balance and the mass (My) recorded. The balance with the glass vial was tared and deposition solvent was added (varying from 1 g to 5 g) and the mass (MS) was recorded. The balance with the deposition solvent in the glass vial was tared again. The lubricant was added in a dropwise fashion using a disposable plastic pipette and the mass (ML) recorded. The glass vial was then mixed by hand for 10 seconds to 30 seconds and the solution clarity was visually observed and recorded. If the solution was hazy, the lubricant was considered to have exceeded the solubility limit of the deposition solvent. If the solution was clear, additional drops of lubricant were added to the glass vial, the mass (ML) was recorded, the glass vial was shaken, and the solution clarity was observed. This process was continued until a hazy solution was observed or more than 10% w/w (weight of lubricant to combined weight of lubricant and deposition solvent) was reached. After a hazy solution or more than 10% w/w was reached, the glass vial with the solution was removed from the balance. The balance was tared and the final mass (Mp) of the glass vial with deposition solvent and lubricant was measured and recorded. To account for the evaporative losses of the deposition solvent during the experiment, the mass of the vial and the mass of the lubricant added were subtracted from the total mass of the vial with the deposition solvent and lubricant to determine the final mass of deposition solvent (Ms*) in the vial (i.e., Ms*=MF−My−ML). Solubility of the lubricant in deposition solvents was calculated as (ML+MS*) and reported in % w/w (weight/weight).
The lubricants described above were mixed with deposition solvents and the solubility results are shown in Table 8 compared to Novec 7100 fluid available from 3M Company, St. Paul, Minn., USA. If the endpoint was not clearly observed, the solubility experiment was repeated. Where a range is reported for solubility, the lower number is the highest soluble value and the higher number is the lowest insoluble value.

SMILES	Boiling Point at 760 mm Hg [1] [°C]	Vapor Pressure at 131° F. (55°) [1] [mm Hg]	Solubility of Z-Dol 2500 in deposition solvent [2] [%]	Solubility of Moresco D40H in deposition solvent [2]	Solubility of Z-Tetraol S Grade in deposition solvent [2]
FC(=C(F)C(F)(F)F)N(C(F)(F)F)C(F)(F)F [Preparatory Example 1, 1,2,3,3,3-pentafluoro-N,N-bis(trifluoromethyl)prop-1-en-1-amine]	85.1	266.6	>10	0.25-0.33%	<<1%
F/C(=C(/F)C(F)(F)F)N1C(F)(F)C(F)(F)OC(F)(F)C1(F)F [Preparatory Example 2, 2,2,3,3,5,5,6,6-octafluoro-4-(1,2,3,3,3-pentafluoroprop-1-enyl)morpholine]			>10	0.67-0.98%	0.67-0.98%
FC(=C(F)C(F)(F)F)N(C(F)(F)F)C(F)(F)C(F)(F)F [Preparatory Example 5, 1,2,3,3,3-pentafluoro-N-(1,1,2,2,2-pentafluoroethyl)-N-(trifluoromethyl)prop-1-en-1-amine]			>10	~0.25%	<<1%
